Assay results published in PubChem BioAssay (NCATS).
“And” between values parts separate entries of the source, which are not always exact repeats. Identical values can stand only once. Inconclusive means that the source gave no clear call. Such entries were picked first, then a sample of the others. For part of these data: A potency beside an inconclusive call is a rough fit, not a confirmed value. For part of these data: “Side channel” marks fits to a control or component signal instead of the main read-out. The source made the active and inactive calls. Unless noted, calls come from the whole dose curve.

Legend:
[1] = target: Estrogen receptor (Homo sapiens) (UniProt P03372); test: qHTS assay for small molecule antagonists of estrogen receptor alpha signaling (AID 588513; active = well fitted curve in the direction sought with a large enough effect in the signal ratio, with a control signal flat, not every such curve was filed as active; inconclusive = small, poorly fitted or top-dose-only effect, or effect the other way, or a change in a side signal; inactive = no such curve, though single readings can be large or run the other way; the % refers to the signal ratio; note: % is set by controls: 0 for no effect and ±100 for the full control effect); settings: ER-alpha-UAS-bla HEK293, beta-lactamase ratio, antagonist mode; activity, negative = inhibition: at 76.9 µM (top of the series) unless noted
UniProt P03372, sequence (P03372 whole entry, looked up): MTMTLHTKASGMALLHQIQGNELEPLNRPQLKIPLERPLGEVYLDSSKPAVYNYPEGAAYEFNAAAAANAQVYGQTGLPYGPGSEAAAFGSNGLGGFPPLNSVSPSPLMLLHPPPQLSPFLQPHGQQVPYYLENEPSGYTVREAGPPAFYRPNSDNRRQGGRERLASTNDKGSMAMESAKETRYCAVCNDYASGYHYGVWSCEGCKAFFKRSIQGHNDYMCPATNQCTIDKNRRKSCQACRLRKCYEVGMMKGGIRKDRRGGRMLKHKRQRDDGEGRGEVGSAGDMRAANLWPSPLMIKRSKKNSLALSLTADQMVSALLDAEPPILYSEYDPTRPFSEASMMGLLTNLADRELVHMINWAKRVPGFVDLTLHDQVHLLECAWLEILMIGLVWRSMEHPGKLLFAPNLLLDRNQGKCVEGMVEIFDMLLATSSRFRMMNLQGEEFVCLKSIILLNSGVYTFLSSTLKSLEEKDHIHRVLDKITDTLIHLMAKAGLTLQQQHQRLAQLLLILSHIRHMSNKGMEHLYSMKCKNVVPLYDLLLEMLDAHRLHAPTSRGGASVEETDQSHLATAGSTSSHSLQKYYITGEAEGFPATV
How it was run: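 ER-alpha-UAS-bla GripTite HEK 293 cells in medium with 2% charcoal/dextran-treated FBS were preincubated 4 h at 37 C, dosed with compound (1:2 titration), stimulated with 0.5nM 17-beta-estradiol for 18 h, then read by CCF4 beta-lactamase fluorescence.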

[2] = target: Estrogen receptor (Homo sapiens) (UniProt P03372); test: qHTS assay for small molecule agonists of estrogen receptor alpha signaling (AID 588514); settings: ER-alpha-UAS-bla HEK293, beta-lactamase ratio, 18 h; activation: at 76.8 µM (top of the series), percent of full estradiol response, vehicle zero;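 note: 0% = vehicle only and 100% = reference agonist; nearly all actives have a fitted effect of over 70% in size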
How it was run: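 Efficacy is expressed against 20 nM 17-beta-estradiol (100%) and DMSO basal (0%); EC50 from Hill equation. Assay: beta-lactamase reporter in ER-alpha-UAS-bla HEK 293 cells, 18 h compound incubation, CCF4 detection.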

[3] = target: Glucocorticoid receptor (Homo sapiens) (UniProt P04150); test: qHTS assay for small molecule antagonists of glucocorticoid receptor signaling (AID 588533; active = well fitted inhibition curve with a large enough effect in the signal ratio, with a control signal flat, not every such curve was filed as active; inconclusive = small, poorly fitted or top-dose-only effect, or effect the other way, or a change in a side signal; the % refers to the signal ratio;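 note: cells stimulated with 2 nM dexamethasone as agonist; % is set by controls: 0 for no effect and ±100 for the full control effect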); settings: HeLa MMTV-bla, GRE beta-lactamase ratio, antagonist mode, 18 h; activity change, negative = inhibition: at 76.8 µM (top of the series) unless noted
[4] = target: Peroxisome proliferator-activated receptor gamma (Homo sapiens) (UniProt P37231); test: qHTS assay for small molecule antagonists of peroxisome proliferator-activated receptor gamma signaling (AID 588537; active = well fitted inhibition curve with a large enough effect in the signal ratio, with a control signal flat, not every such curve was filed as active; inconclusive = small, poorly fitted or top-dose-only effect, or effect the other way, or a change in a side signal; the % refers to the signal ratio; note: potency is the fitted concentration of half-maximal effect;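 note: reporter cells co-stimulated with 50 nM rosiglitazone agonist during compound treatment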; for activity, negative = inhibition: % of control where 0% means no effect); settings: HEK293 PPARg-UAS-bla, beta-lactamase ratio, antagonist mode; activity, negative = inhibition: at 76.8 µM (top of the series)
How it was run: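 Fluorescence at 460 and 530 nm (405 nm excitation) reported beta-lactamase cleavage of CCF4 after 2 h room-temperature loading. HEK293 reporter cells in 1% charcoal/dextran-treated FBS had received compound and rosiglitazone for 16 h.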

[5] = target: Retinoic acid receptor RXR-alpha (Homo sapiens) (UniProt P19793); test: qHTS assay for small molecule antagonists of retinoid X receptor alpha signaling (AID 588546; active = well fitted inhibition curve with a large enough effect in the signal ratio, with a control signal flat, not every such curve was filed as active; inconclusive = small, poorly fitted or top-dose-only effect, or effect the other way, or a change in a side signal; inactive = no such curve, though single readings can be large or run the other way; the % refers to the signal ratio; note: potency is the fitted concentration of half-maximal effect;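 for max response: cells stimulated with 9-cis-retinoic acid as agonist; % is set by controls: 0 for no effect and ±100 for the full control effect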); settings: HEK293T RXRa-UAS-bla, beta-lactamase ratio, antagonist mode
UniProt P19793, sequence (P19793 whole entry, looked up): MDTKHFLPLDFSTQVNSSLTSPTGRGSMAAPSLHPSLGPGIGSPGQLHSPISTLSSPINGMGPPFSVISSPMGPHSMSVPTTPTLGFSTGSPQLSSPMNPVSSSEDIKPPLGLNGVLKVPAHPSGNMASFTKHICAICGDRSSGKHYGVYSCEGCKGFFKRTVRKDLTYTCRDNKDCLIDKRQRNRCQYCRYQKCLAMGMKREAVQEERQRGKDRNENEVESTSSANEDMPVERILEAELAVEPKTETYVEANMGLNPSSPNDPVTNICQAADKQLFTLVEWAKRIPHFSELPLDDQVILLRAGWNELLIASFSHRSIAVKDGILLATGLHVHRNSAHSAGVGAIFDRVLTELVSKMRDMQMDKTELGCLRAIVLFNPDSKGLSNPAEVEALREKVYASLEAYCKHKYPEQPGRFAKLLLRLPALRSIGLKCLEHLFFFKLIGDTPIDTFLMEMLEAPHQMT
How it was run: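 Beta-lactamase reporter inhibition, read as CCF4 fluorescence ratio (ex 405, em 460/530 nm) after 2 h at RT. HEK293T UAS-bla cells, 2500/well, were stimulated with 9-cis-RA at 500 or 100 nM final alongside test compound for 18 h at 37 C.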

[6] = target: Thyroid hormone receptor beta (Homo sapiens) (UniProt P10828); test: qHTS assay for small molecule antagonists of thyroid hormone receptor beta signaling (AID 588547; active = well fitted inhibition curve with a large enough effect in the signal ratio, with a control signal flat, not every such curve was filed as active; inconclusive = small, poorly fitted or top-dose-only effect, or effect the other way, or a change in a side signal; the % refers to the signal ratio; note: potency is the fitted concentration of half-maximal effect); settings: TR-UAS-bla HEK293, beta-lactamase ratio, antagonist mode, 18 h
UniProt P10828, sequence (P10828 whole entry, looked up): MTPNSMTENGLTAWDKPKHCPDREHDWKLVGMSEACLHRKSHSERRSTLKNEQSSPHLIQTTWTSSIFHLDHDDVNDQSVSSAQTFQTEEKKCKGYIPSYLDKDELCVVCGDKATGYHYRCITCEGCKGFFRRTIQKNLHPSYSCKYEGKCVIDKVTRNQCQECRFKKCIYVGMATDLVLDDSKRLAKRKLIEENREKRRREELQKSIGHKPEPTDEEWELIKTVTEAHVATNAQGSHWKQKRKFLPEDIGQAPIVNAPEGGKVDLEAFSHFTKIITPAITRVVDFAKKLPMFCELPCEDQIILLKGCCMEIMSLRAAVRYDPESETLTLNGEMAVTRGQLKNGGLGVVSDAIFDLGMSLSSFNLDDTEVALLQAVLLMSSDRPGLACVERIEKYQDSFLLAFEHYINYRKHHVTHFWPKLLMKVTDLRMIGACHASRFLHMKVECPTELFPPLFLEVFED
How it was run: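 TR-UAS-bla GripTite HEK293 cells in 2% charcoal/dextran FBS medium; compounds 0.59 nM to 92 uM with T3 at 0.4nM final, 18 h at 37 C. Beta-lactamase read by CCF4 fluorescence (460/530 nm); Hill fits gave IC50 and efficacy.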

[7] = qHTS assay for small molecule agonists of the antioxidant response element (ARE) signaling pathway (AID 651741; active = well fitted activation curve with a large enough effect in the signal ratio; inconclusive = small, poorly fitted or top-dose-only effect, or effect the other way, or a change in a side signal; the % refers to the signal ratio; note: potency is the fitted concentration of half-maximal effect); settings: HepG2 ARE-bla reporter, beta-lactamase FRET ratio, 16 h; activation: at 96 µM (top of the series) unless noted
How it was run: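 Stably integrated ARE-beta-lactamase reporter HepG2 cells; 16 h compound incubation, 37 C; LiveBLAzer FRET substrate 2 h at room temperature; fluorescence intensity.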

[8] = qHTS assay for small molecule agonists of the antioxidant response element (ARE) signaling pathway measured by Nrf2-dependant transcriptional activity (AID 720636; active = well fitted curve in the direction sought with a large enough effect in the repeat runs; inconclusive = weak or mixed curves; inactive = no such curve, though single readings can be large; an effect the other way counts as inactive or inconclusive;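 note: HepG2 cells with an ARE-driven luciferase reporter; % of control where 0% means no effect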)
How it was run: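 First, ARE-luc HepG2 cells attached for 6 hr at 37 C in 1% dialyzed FBS medium. Next, compound or DMSO was added and incubated 16 hr. Finally, ONE-Glo reagent was added and luminescence measured after 30 min.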

[9] = target: Retinoic acid receptor RXR-alpha (Homo sapiens) (UniProt P19793); test: qHTS assay for small molecule agonists of retinoid X receptor alpha signaling (AID 588544); settings: HEK293T RXRa-UAS-bla, beta-lactamase reporter, 18 h; activation: at 76.7 µM (top of the series) unless noted;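 note: 0% = DMSO basal wells and 100% = reference agonist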
[10] = target: Peroxisome proliferator-activated receptor delta (Homo sapiens) (UniProt Q03181); test: qHTS assay for small molecule antagonists of peroxisome proliferator-activated receptor delta signaling (AID 588535; active = well fitted inhibition curve with a large enough effect in the signal ratio, with a control signal flat, not every such curve was filed as active; inconclusive = small, poorly fitted or top-dose-only effect, or effect the other way, or a change in a side signal; inactive = no such curve, though single readings can be large or run the other way; the % refers to the signal ratio); settings: HEK293T PPARd-UAS-bla, beta-lactamase FRET ratio, 18 h; activity change, negative = inhibition: at 76.7 µM (top of the series) unless noted
UniProt Q03181, sequence (Q03181 whole entry, looked up): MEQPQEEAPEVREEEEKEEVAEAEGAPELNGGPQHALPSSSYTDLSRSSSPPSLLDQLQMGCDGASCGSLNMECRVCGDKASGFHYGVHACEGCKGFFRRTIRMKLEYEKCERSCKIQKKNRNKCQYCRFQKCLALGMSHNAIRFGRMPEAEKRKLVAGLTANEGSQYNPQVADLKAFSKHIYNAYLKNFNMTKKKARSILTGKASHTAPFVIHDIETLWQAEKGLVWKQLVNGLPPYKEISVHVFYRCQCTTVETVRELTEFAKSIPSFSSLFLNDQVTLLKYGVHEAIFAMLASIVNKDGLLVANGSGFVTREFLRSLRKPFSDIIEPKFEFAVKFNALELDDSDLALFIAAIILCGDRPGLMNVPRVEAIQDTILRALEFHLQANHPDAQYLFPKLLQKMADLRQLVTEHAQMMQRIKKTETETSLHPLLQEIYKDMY
How it was run: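 Fluorescence from CCF4-loaded GeneBLAzer PPAR-delta-UAS-bla HEK293T cells (2 hrs RT loading) quantified reporter inhibition after an 18 hr, 37 C compound exposure across a titration.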

[11] = target: Vitamin D3 receptor (Homo sapiens) (UniProt P11473); test: qHTS assay for small molecule antagonists of vitamin D receptor signaling (AID 588541); settings: HEK293T VDR-UAS-bla, beta-lactamase ratio, antagonist mode; activity change, negative = inhibition: at 76.7 µM (top of the series);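 note: receptor activated by calcitriol during compound treatment; % is set by controls: 0 for no effect and ±100 for the full control effect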
[12] = qHTS assay for small molecule activators of the nuclear factor-kappa B (NF-kB) signaling pathway (AID 651749; active = well fitted activation curve with a large enough effect in the signal ratio; inconclusive = small, poorly fitted or top-dose-only effect, or a change in a side signal; the % refers to the signal ratio; note: potency is the fitted concentration of half-maximal effect; for activation: % of control where 0% means no effect); settings: NF-kB-bla ME-180 cells, beta-lactamase FRET ratio, 16 h; activation: hits give high values
How it was run: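 In this qHTS format, compounds acting as activators increase NF-kB-driven beta-lactamase in ME-180 cells, measured as disrupted FRET after 16 hr exposure at 37C and 5% CO2.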

[13] = target: Cytochrome P450 3A4 (Homo sapiens) (UniProt P08684); test: qHTS Assay for Inhibitors and Substrates of Cytochrome P450 3A4 (AID 884; active = well fitted curve in the direction sought with a large enough effect; inconclusive = small, poorly fitted or top-dose-only effect, or another doubt; inactive = no such curve, though single readings can be large; an effect the other way counts as inactive or inconclusive; note: % is set by controls: 0 for no effect and ±100 for the full control effect; nearly all actives have a fitted effect of over 50% in size)
UniProt P08684, sequence (P08684 whole entry, looked up): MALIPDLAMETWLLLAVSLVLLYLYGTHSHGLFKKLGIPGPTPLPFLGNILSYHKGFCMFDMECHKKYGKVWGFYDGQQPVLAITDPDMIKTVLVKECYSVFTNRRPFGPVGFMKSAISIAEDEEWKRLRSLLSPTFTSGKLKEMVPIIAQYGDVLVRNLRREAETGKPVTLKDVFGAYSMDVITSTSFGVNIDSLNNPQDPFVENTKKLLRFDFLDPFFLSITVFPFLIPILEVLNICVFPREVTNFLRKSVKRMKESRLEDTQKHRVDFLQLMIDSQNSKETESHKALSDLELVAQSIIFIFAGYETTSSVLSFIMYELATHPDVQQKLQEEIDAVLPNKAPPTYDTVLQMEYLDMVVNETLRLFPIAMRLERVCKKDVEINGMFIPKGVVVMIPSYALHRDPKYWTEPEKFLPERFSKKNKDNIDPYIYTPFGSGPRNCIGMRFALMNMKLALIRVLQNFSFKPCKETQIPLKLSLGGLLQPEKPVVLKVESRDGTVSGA
How it was run: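 Luminescent readout of luciferin produced by CYP3A4 (20 nM) dealkylation of Luciferin-PPXE, 25 uM (its KM). NADPH-driven reaction ran 60 min at RT after 10 min compound preincubation; data scaled to 57 uM ketoconazole as 100% inhibition.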

[14] = Cell Viability - LYMP2-004 (AID 966; active = well fitted curve in the direction sought with a large enough effect; inconclusive = small, poorly fitted or top-dose-only effect, or another doubt; inactive = no such curve, though single readings can be large; an effect the other way counts as inactive or inconclusive;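 note: cells exposed to compound for 24 h; plate controls were DMSO only for no effect and tetraoctylammonium bromide control for full effect; nearly all actives have a fitted effect of over 65% in size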); settings: LYMP2-004 lymphoblastoid cell viability, qHTS; activity change, negative = cytotoxicity: at 92.2 µM (top of the series)
How it was run: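 qHTS cytotoxicity: human lymphoblastoid line, 24 hr compound treatment, 37 C, complete medium. Viability read as cellular ATP via luciferase luminescence; tetraoctylammonium bromide served as positive control.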

[15] = Cell Viability - LYMP2-014 (AID 983; active = well fitted curve in the direction sought with a large enough effect; inconclusive = small, poorly fitted or top-dose-only effect, or another doubt; inactive = no such curve, though single readings can be large; an effect the other way counts as inactive or inconclusive;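 note: cells exposed to compound for 24 h at 37 °C; plate controls were DMSO only for no effect and 92 µM tetraoctylammonium bromide for full effect; nearly all actives have a fitted effect of over 50% in size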)
How it was run: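 Cells are plated at 2500/well and left 5 hr at 37 C. Compounds are added across a concentration range and incubated 24 hr at 37 C in complete medium. CellTiter-Glo is added, and luminescence is read after 30 min at room temperature.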

[16] = qHTS assay to identify small molecules that stimulate interleukin-8 (IL-8) secretion (AID 651758; active = well fitted activation curve with a large enough effect in the signal ratio; inconclusive = small, poorly fitted or top-dose-only effect, or effect the other way, or a change in a side signal; the % refers to the signal ratio; note: 0% is about no effect); settings: HTRF ratio (665/615); activation: at 92.2 µM (top of the series)
How it was run: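 Compounds are added to THP-1 cells (2000 per well) and left 16 hrs at 37 C. A labeled anti-IL-8 antibody pair is then added, and IL-8 secretion is measured by time-resolved FRET after 1-3 hrs at room temperature.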
Tags give direction and shape of the fitted curve or compound fluorescence and quenching.

Clc1ccc([C@@]2(Cn3cncn3)C[C@@H](Br)CO2)c(Cl)c1
inactive: Potency [1] | Potency [4] | max response [5] -32.6% | activity change % (negative = inhibition) [6] 11.5% | Potency [8]
inconclusive: activation [2] 61.9% | activity change, negative = inhibition [3] -12% | Potency [7] 77 µM [activator, single point]

CCNc1nc(NCC)nc(SC)n1
inactive: Potency [1] | Potency [2] | Potency [3] | Potency [9]
inconclusive: Potency [4] 50.1 µM [inhibitor, single point] | Potency [7] 15.4 µM [activator, partial curve]

CC1(C)[C@H](C=C(Cl)Cl)[C@H]1C(=O)O[C@H](C#N)c1ccc(F)c(Oc2ccccc2)c1
inactive: activation [12] 4.2% | Potency [8]
inconclusive: activity, negative = inhibition [1] -40.6% and -13.6% | activation [2] -1.9% | activity change, negative = inhibition [10] -11% | Potency [4] 44.7 µM [inhibitor, partial curve, poor fit] | activity change, negative = inhibition [11] -7.62% | activation [9] -6.22% and -26.7% | Potency [5] 35.5 µM [inhibitor, partial curve, poor fit] | Potency [6] 2.82 µM [cytotoxic, side channel, partial curve, poor fit] | Potency [7] 61.1 µM [activator, single point] and 77 µM [activator, single point] | Potency [12] 35.5 µM [side channel, falling, partial curve]

ClC(Cl)(Cl)c1ccccc1
inconclusive: Potency [7] 75 µM [activator, single point] | activation [16] -19.7% and -8.32%
inactive: Potency [13] | Potency [14] | Potency [15] | Potency [1] | Potency [2] | Potency [10] | Potency [9] | max response [5] 9.82% and 8.91%
